Experimental data from publication PMC12752793, “Development of potent Affitin-based bispecific NK cell engagers for the therapy of MSLN-expressing cancers” (Molecular Therapy Oncology, 2025).

Legend:
[1] = biological target: T1, human mesothelin on the surface of Meso34-MSLN cells (human, UniProt Q13421); assay: flow cytometry on cells; Meso34 and Meso34-MSLN cells stained with a concentration range of N13 monomer (streptavidin-PE), N13 dimer (anti-6X His Tag-PE) or MORAb-009 (anti-human IgG Fc), 30 min at 4°C; EC50 by one binding site regression; details: one partner purified
T1 construct: human mesothelin expressed from a lentivirus on Meso34 cells; also called cellular hMSLN; Meso34-hMSLN; source: Meso34 pleural mesothelioma cells transduced with an hMSLN-encoding lentivirus, on cells

[2] = biological target: T2, recombinant 302–359 fragment of human mesothelin (hMSLN) (Homo sapiens, UniProt Q13421, biotin on the AviTag); assay: SPR; Biacore T200; hMSLN 302–359 amine-coupled at about 700 RU on CM5; analytes 12.5 to 200 nM in HBS-EP, single cycle kinetics, 30 μL/min; bivalent model; apparent; details: both partners purified
T2 construct: Amine-coupled to a CM5 chip in SPR, captured on NeutrAvidin in ELISA; source: E. coli Origami B with pBirA, purified (Ni-NTA, Superdex 75); not shown: AviTag, C-terminal, kept

B1: MORAb-009 (amatuximab) anti-mesothelin monoclonal antibody (antibody, V domains shown)
VH: not shown
VL: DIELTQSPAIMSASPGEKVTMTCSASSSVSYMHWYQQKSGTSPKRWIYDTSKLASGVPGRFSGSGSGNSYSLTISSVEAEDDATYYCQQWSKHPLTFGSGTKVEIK
notes: Bivalent antibody, detected with an anti-human IgG Fc antibody; the PDB entry would give the variable parts only; also called MORAb antibody; source: bought: Proteogenix (PX-TA1049)
- binding result [1]: binds
- binding result [2]: binds
